Laboratory results: the supplement of paper PMC8512760
The list shows a part of the results. Many values rest on one well or one pass, so single values are uncertain.

The molecules below were run on HCC-1143 (assay: cell viability relative to vehicle (% of vehicle); basal-like triple-negative breast cancer lines; higher = less cytotoxic). Conditions: 10 µM; 72 h.
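Also: stably firefly luciferase-GFP labeled cells in 96-well plates, viability read as luciferase photon flux after d-luciferin addition, treated wells normalized to vehicle wells, single-dose high-throughput screen.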

Structure (SMILES)	cell viability
CC12CCC(O)CC1=CCC1C2CCC2(C)C(c3cccnc3)=CCC12 (centres undefined) [Abiraterone]	93.1
CC(C)NCC(O)COc1ccc(COCCOC(C)C)cc1.O=C(O)C=CC(=O)O (centres undefined) [Bisoprolol fumarate]	79
CN(C)C(=O)c1cc2cnc(Nc3ccc(N4CCNCC4)cn3)nc2n1C1CCCC1	107
Cc1cccc(CN2CCN(C(c3ccccc3)c3ccc(Cl)cc3)CC2)c1.Cl.Cl (centres undefined) [Meclizine 2HCl]	95.2
Cl.Cl.Clc1ccc(Nc2nnc(Cc3ccncc3)c3ccccc23)cc1 [Vatalanib (PTK787) 2HCl]	85.7
CNNCc1ccc(C(=O)NC(C)C)cc1.Cl [Procarbazine HCl]	105
CC1OC(n2cc(F)c(=O)[nH]c2=O)C(O)C1O (centres undefined) [Doxifluridine]	64.2
CC1(C)SC2C(NC(=O)C(NC(=O)N3CCN(S(C)(=O)=O)C3=O)c3ccccc3)C(=O)N2C1C(=O)O.[Na] (centres undefined) [Mezlocillin Sodium]	71.3
Cc1ccc(C(=O)C(C)CN2CCCCC2)cc1.Cl (centres undefined) [Tolperisone HCl]	76.2
CCOC(=O)C1OC1C(=O)NC(CC(C)C)C(=O)NCCC(C)C (centres undefined)	85.5
CN1CCN(c2ccc(C(=O)/N=c3\[nH][nH]c4ccc(Cc5cc(F)cc(F)c5)cc34)c(NC3CCOCC3)c2)CC1 [Entrectinib]	35.3
CC(C)(Oc1ccc(C2CC2(Cl)Cl)cc1)C(=O)O (centres undefined) [Ciprofibrate]	71.3
CN1CCC(=C2c3ccccc3CCc3sccc32)CC1.O=C(O)CC(O)C(=O)O [Pizotifen Malate]	85.3
COc1ccnc(C[S+]([O-])c2nc3cc(OC(F)F)ccc3[nH]2)c1OC (centres undefined) [Pantoprazole]	103
CC(S)C(=O)NCC(=O)O (centres undefined) [Tiopronin (Thiola)]	81.7
CN1CCN(c2c(F)cc3c(=O)c(C(=O)O)cn4c3c2OCN4C)CC1 [Marbofloxacin]	95
CS(=O)(=O)c1ccc(C(O)C(CO)NC(=O)C(Cl)Cl)cc1 (centres undefined) [Thiamphenicol]	64.7
Cc1ncc(C[n+]2csc(CCO)c2C)c(N)n1.Cl.[Cl-] [Thiamine HCl (Vitamin B1)]	70.2
Nc1nc(=O)c2c(CCc3ccc(C(=O)NC(CCC(=O)O)C(=O)O)cc3)c[nH]c2[nH]1.O.[Na+] (centres undefined) [Pemetrexed disodium hemipenta hydrate]	80.1
CCCCC1C(=O)N(c2ccccc2)N(c2ccccc2)C1=O [Phenylbutazone]	90.8

Structure (SMILES)	cell viability
CO[C@H]1O[C@@H]2OC3(C)CC[C@H]4[C@H](C)CC[C@@H]([C@H]1C)[C@@]24OO3 [Artemether]	71.6
CC(C)(C)NC(=O)NC(C(=O)N1CC2C(C1C(=O)NC(CC1CCC1)C(=O)C(N)=O)C2(C)C)C(C)(C)C (centres undefined) [Boceprevir]	85.5
CC(CCC(=O)O)C1CCC2C3CCC4CC(O)CCC4(C)C3CCC12C (centres undefined) [Lithocholic Acid]	111
CC(C(=O)[O-])c1cccc(Oc2ccccc2)c1.CC(C(=O)[O-])c1cccc(Oc2ccccc2)c1.[Ca+2] (centres undefined) [Fenoprofen Calcium]	116
Cc1c(O)cccc1C(=O)NC(CSc1ccccc1)C(O)CN1CC2CCCCC2CC1C(=O)NC(C)(C)C (centres undefined) [Nelfinavir]	77.3
CCC(=C(c1ccccc1)c1ccc(OCCN(C)C)cc1)c1ccccc1.O=C(O)CC(O)(CC(=O)O)C(=O)O [Tamoxifen Citrate]	101
CN1CCN(CCCN2c3ccccc3Sc3ccc(Cl)cc32)CC1 [Prochlorperazine]	86.2
CN(C)CC(c1ccc(O)cc1)C1(O)CCCCC1 (centres undefined) [Desvenlafaxine]	69.6
CCCCOc1cc(C(=O)OCCN(CC)CC)ccc1N.Cl [Oxybuprocaine HCl]	127
CS(=O)(=O)Nc1ccc([N+](=O)[O-])cc1Oc1ccccc1 [Nimesulide]	129
Cc1ncc(CO)c(CO)c1O.Cl [Pyridoxine HCl]	78.5
CC(=O)O.C[C@H](N)C(=O)O.NCCCC[C@H](N)C(=O)O.N[C@@H](CCC(=O)O)C(=O)O.N[C@@H](Cc1ccc(O)cc1)C(=O)O [glatiramer acetate]	71.9
CC(C)NCC(O)c1ccc(O)c(O)c1.Cl (centres undefined) [Isoprenaline HCl]	101
COC(=O)Nc1nc2ccc(C(=O)c3ccc(F)cc3)cc2[nH]1 [Flubendazole]	63.3
CC1CC2C3CCC4=CC(=O)C=CC4(C)C3(Cl)C(O)CC2(C)C1(OC(=O)c1ccco1)C(=O)CCl (centres undefined) [Mometasone furoate]	77.1
COc1ccc(C=Cc2cc(OC)c(OC)c(OC)c2)cc1OP(=O)([O-])[O-].[Na+].[Na+] [Fosbretabulin (Combretastatin A4 Phosphate (CA4P)) Disodium]	58.8
Nc1nc(NC2CC2)c2ncn(C3C=CC(CO)C3)c2n1.O=S(=O)(O)O (centres undefined) [Abacavir sulfate]	84.7
CCC1=CC2CN(C1)Cc1c([nH]c3ccccc13)C(C(=O)OC)(c1cc3c(cc1OC)N(C)C1C(O)(C(=O)OC)C(OC(C)=O)C4(CC)C=CCN5CCC31C54)C2.O=C(O)C(O)C(O)C(=O)O.O=C(O)C(O)C(O)C(=O)O (centres undefined) [Vinorelbine ditartrate]	61.2
O=C1NC([O-])=NC1(c1ccccc1)c1ccccc1.[Na+] [Phenytoin sodium]	73.9
